The RNAGym collection of RNA variant scans (doi:10.7554/elife.90254)
Read counts are not given, so values of variants with three or more changes are uncertain.

B1: OR4K15 (parent)
chain: GUUAACGGUCAUAGGCCAUGGAAACUAGGAGCACCAUUUCGCUGCCAGUGAAGAAAUGAACAAAGAAAAUCUGGGCCAGGCAGGCAUCAAAAGAAAUAGUCUUGCGCUCAACCAGAAAGUCUGUAAUCAUUUUAAGGGUA

Variants of: B1
Assay: self-cleavage, relative activity (ratio to wild type); higher = more cleavage; in vitro, sequencing; the parent is a self-cleaving ribozyme
A33G U70C A90G A118G U139C gave a self-cleavage of 0.09.
A56G U97C A111G showed a self-cleavage of 0.03.
A56G A64G A96G A116U U130A showed a self-cleavage of 0.19.
A33G U49C A51G A54C A110G A129U showed a self-cleavage of 0.07.
A52U U57C U120A G136U gave a self-cleavage of 0.73.
Work on A62U U72A C109U yielded a self-cleavage of 0.04.
Variant A11G A23U U122C has a self-cleavage of 1.13.
A5U A51G A67G A68G U131C showed a self-cleavage of 1.
A22G A30G U38C showed a self-cleavage of 1.46.
Variant U2C A23U G50U U108C has a self-cleavage of 0.03.
A5G A18U A22C A90G A114G showed a self-cleavage of 0.36.
Work on G7A U9C A11G A51U A56G yielded a self-cleavage of 0.51.
Variant A23G A63U U72C has a self-cleavage of 0.39.
Variant A11U C17U U131C U133C has a self-cleavage of 1.5.
In the case of A51U G58U A90G, the self-cleavage is reported as 1.21.
U2C U57C A69G U120C showed a self-cleavage of 0.71.
A4G U72A A95U A96G showed a self-cleavage of 0.4.
In the case of A68G A98G C105G, the self-cleavage is reported as 0.01.
Work on A68G A91G U122A U131C yielded a self-cleavage of 0.15.
Work on A22U A52G A125G yielded a self-cleavage of 0.46.
In the case of C17U A22G U49A A51G U132C, the self-cleavage is reported as 1.17.
In the case of A62G A78U U100A A129C U130C, the self-cleavage is reported as 0.03.
Work on U39C U43C A66G U103G U130C yielded a self-cleavage of 0.01.
A67U A90G A116G gave a self-cleavage of 1.35.
With U9C U19A A55G U102C the self-cleavage was 1.29.
U39C A52G A66G showed a self-cleavage of 1.63.
In the case of G41A A56G A63G, the self-cleavage is reported as 1.07.
With A52G A69G A91G the self-cleavage was 1.29.
In the case of C6U U9G A33G A47U A92G, the self-cleavage is reported as 0.31.
A18G A36C A86U U127C showed a self-cleavage of 1.3.
For U102C U108C U130C, the self-cleavage was 0.01.
Variant A5G A62G C107U U108C has a self-cleavage of 0.15.
For A27U A51U A86G U120C, the self-cleavage was 0.39.
In the case of U19A A68G A86G U122C, the self-cleavage is reported as 0.64.
A13G U37C A52G A82U A96G A117G gave a self-cleavage of 0.16.
With U3C A67G A95G the self-cleavage was 1.39.
In the case of U12C A23U A24C A126U, the self-cleavage is reported as 1.23.
Work on A24U U103C U133C A135G yielded a self-cleavage of 0.96.
For A23G A36G U38C, the self-cleavage was 1.73.
In the case of A55G A67G U120C, the self-cleavage is reported as 0.41.
A24G A52G U108A A118G gave a self-cleavage of 0.
For A11G U12C A24C C40U U120C, the self-cleavage was 0.91.
For A62G A68G U87C A110G, the self-cleavage was 0.09.
Variant U37C A51G A78C A114G has a self-cleavage of 0.04.
For U9C A30U A78G A118G, the self-cleavage was 0.15.
With U43A A55G U122C the self-cleavage was 1.04.
For A63G U122A A126G, the self-cleavage was 0.65.
Work on C45U A89G A118G yielded a self-cleavage of 1.53.
A78G A95G U127C showed a self-cleavage of 0.27.
Variant U9A U39C A140G has a self-cleavage of 0.83.
For A51G A54G C88A, the self-cleavage was 2.19.
U2C A5G A30G G74A showed a self-cleavage of 0.2.
A24G C77U A91U showed a self-cleavage of 0.99.
Variant G75A A89G A92G has a self-cleavage of 0.11.
Variant C32U A62G A66G G104U A118G has a self-cleavage of 0.
For A11G U19C A30G A51G A55G A67G A116G, the self-cleavage was 0.57.
Variant U38C A51G A54G C101A A114U has a self-cleavage of 0.02.
Variant A89G A92G U108C has a self-cleavage of 0.03.
U2C A51U U100C U102C gave a self-cleavage of 1.63.
For A55G A64G A96G A125U, the self-cleavage was 1.24.
For A11G A66G A78G, the self-cleavage was 0.2.
Variant U38C U43A U103C has a self-cleavage of 1.15.
A18G A23G A60G A96G A114U showed a self-cleavage of 0.06.
For A18C A55C U102C U122C U127C, the self-cleavage was 1.82.
U19C C76A C128U showed a self-cleavage of 0.14.
Work on A47U A63G G74A A110G yielded a self-cleavage of 0.04.
For A30G A96G A114U, the self-cleavage was 0.15.
A11G A24C U127C showed a self-cleavage of 0.66.
A55G A68G A94G showed a self-cleavage of 0.59.
Work on A30U A68G A92G yielded a self-cleavage of 0.66.
For U2C A36G G75A, the self-cleavage was 0.21.
A59G A86G A110G C121U A129G showed a self-cleavage of 0.31.
A33G U37C A86G U100A U102A showed a self-cleavage of 0.1.
In the case of A62G A94U A96G A118G, the self-cleavage is reported as 0.11.
Variant C61U A68G C76A A125G has a self-cleavage of 0.06.
With U2C C77U A114U the self-cleavage was 0.09.
Variant C10U A63G U100C has a self-cleavage of 1.81.
G7U A95U U108C A134G A135G showed a self-cleavage of 0.
A54G A78U A116G A125G showed a self-cleavage of 0.02.
Variant A30U U49A A52G A94G has a self-cleavage of 1.86.
A13U A55G A68G A69C A114G A135G showed a self-cleavage of 0.03.
With A55G A96G G106A U120C the self-cleavage was 0.
A5G U38G A89U showed a self-cleavage of 1.49.
Work on A22G A67G C128A yielded a self-cleavage of 0.86.
U9C A54G A96U showed a self-cleavage of 1.23.
A22G A78G A94G showed a self-cleavage of 0.21.
Work on U2C A33U A51G A60G A63G G106U A111G yielded a self-cleavage of 0.01.
With A22G A52G U120C U122C the self-cleavage was 0.5.
With A18G A59U A67G U122C the self-cleavage was 0.87.
A51G A63G U100G U103A A118G showed a self-cleavage of 0.07.
A33G U87A A110U showed a self-cleavage of 0.62.
For A33U A47G A110G U133A, the self-cleavage was 0.11.
For A18U U49G A60G A78G A116G, the self-cleavage was 0.15.
Variant U49C U124A U131C has a self-cleavage of 0.49.
For A51G A98G C109U, the self-cleavage was 0.13.
U49A A55G U127C gave a self-cleavage of 0.13.
A30G A68G A89G A116U showed a self-cleavage of 0.42.
Work on A18G A56G U108C U130C yielded a self-cleavage of 0.
In the case of A18U A63G C88U, the self-cleavage is reported as 1.32.
In the case of A51G A94U A129G, the self-cleavage is reported as 0.76.
Work on U49A A66U A96G yielded a self-cleavage of 1.98.
Work on G20A A82U A117G yielded a self-cleavage of 0.25.
Variant U19C A90G A94G A98G A111G U120C has a self-cleavage of 0.01.
Work on U19C A52G A67U U124G A140C yielded a self-cleavage of 0.25.
A11G A22G G28C gave a self-cleavage of 1.53.
Work on A23G A68G A118G yielded a self-cleavage of 1.55.
Work on C35U G74A U131C yielded a self-cleavage of 0.13.
With A5G A55G A86G A90G A96G the self-cleavage was 1.62.
In the case of A47G A56G U100C, the self-cleavage is reported as 1.7.
With U39C U102C U122C U133C the self-cleavage was 1.13.
A36G A62G A86G U122A gave a self-cleavage of 2.09.
A4G U43C A52U A59G showed a self-cleavage of 1.6.
In the case of A59G A92G A135G, the self-cleavage is reported as 0.98.
A33G U39C A78U U87C gave a self-cleavage of 0.27.
In the case of A11U A22G U26C, the self-cleavage is reported as 1.02.
Work on A13G A51G A68G A117G yielded a self-cleavage of 1.36.
For A18U G31A G75C A126G, the self-cleavage was 0.13.
For U19C A89G A92G U102C, the self-cleavage was 1.96.
Variant A54U A69G C88A A90G has a self-cleavage of 1.36.
For A33G U37C U57C A86G U100C U108C, the self-cleavage was 0.01.
For A36G A64G A89G A118G, the self-cleavage was 0.37.
A33G A69G A86U U130C gave a self-cleavage of 0.34.
For U37C A51G A56G U100C, the self-cleavage was 2.13.
A22G U38C A63G U120C gave a self-cleavage of 1.25.
Work on A60G A67G U100C yielded a self-cleavage of 2.12.
For G7A A22G A33G U43C, the self-cleavage was 1.06.
For A52G A78U A89G, the self-cleavage was 0.6.
U9C A64G A110G A111G showed a self-cleavage of 0.03.
U9C A90G A98G gave a self-cleavage of 0.55.
With A33G A62G G73A the self-cleavage was 0.07.
A56G U108C C112G showed a self-cleavage of 0.
A13G A67G A116G showed a self-cleavage of 0.19.
U103C A110G U122C gave a self-cleavage of 0.03.
Work on U2C A5G U12C U37C A64G A69G G75A A118G yielded a self-cleavage of 0.21.
With U49C A56G A63G U108C the self-cleavage was 0.
For U12C A24G A116G U122C, the self-cleavage was 0.74.
For A33U U127C A135G, the self-cleavage was 1.11.
Variant A30G U37C A134G has a self-cleavage of 1.66.
A11U U49C A95G C121A gave a self-cleavage of 2.96.
With U3C A13G A23G U43C A52G A67G the self-cleavage was 1.18.
With A24G A30G A117G U130C the self-cleavage was 1.11.
U108C A111U A117G U122C showed a self-cleavage of 0.
For A66G C71U U122A U132C, the self-cleavage was 0.39.
Work on U39A C40U A54U A114U yielded a self-cleavage of 0.01.
U57C A78G U102A showed a self-cleavage of 0.02.
Variant U2C G29A A55G A117U has a self-cleavage of 0.64.
A5G U43C A110G U124G gave a self-cleavage of 0.09.
In the case of A27C U43A A51G A66G, the self-cleavage is reported as 1.3.
Work on A27U A60C A78G A116G yielded a self-cleavage of 0.23.
Work on A5G A13G A66G A92G yielded a self-cleavage of 1.31.
Work on U3A U38C C61U C105U A110C U122C yielded a self-cleavage of 0.02.
U43C A78G A82G A117G U133C showed a self-cleavage of 0.05.
Variant A36U A47G A63G U132C has a self-cleavage of 0.99.
U12C A55G U120C showed a self-cleavage of 0.46.
For A11G A66U A126G, the self-cleavage was 0.47.
In the case of A30G A64G A67G A92G, the self-cleavage is reported as 1.5.
Work on A78U U87C U130C A140G yielded a self-cleavage of 0.13.
G7A A23G U49C C61U U130C gave a self-cleavage of 0.83.
With A51G A90G U100G A116U the self-cleavage was 0.4.
A33G A78G A98G U108C showed a self-cleavage of 0.03.
Work on A60G A89U A114G U122C yielded a self-cleavage of 0.39.
For A23G A36G A52G G137U, the self-cleavage was 1.26.
In the case of A33U U87G A140U, the self-cleavage is reported as 0.77.
A33G U38A U49C A54G A69G A114G showed a self-cleavage of 0.16.
With U12C A13G A96G the self-cleavage was 0.98.
Variant A18G U39C A78U A89C has a self-cleavage of 0.38.
With U43A A63G C76U A90G the self-cleavage was 0.25.
